Reference: paper PMC3297496
Results are given in words; binding and its absence hold for the method and conditions named. For part of these data: In cells and extracts the contact can be indirect. Some results given as binding are weak or reduced against the parent protein; the word gives no strength. Tags and fused reporters may be left off the sequences shown.

T1: His-tagged GPA-15, in-vitro translated (pTNT-HIS) (C. elegans) (UniProt P91907)
T1 sequence (chain, translated in the presence of biotinylated lysyl-tRNA): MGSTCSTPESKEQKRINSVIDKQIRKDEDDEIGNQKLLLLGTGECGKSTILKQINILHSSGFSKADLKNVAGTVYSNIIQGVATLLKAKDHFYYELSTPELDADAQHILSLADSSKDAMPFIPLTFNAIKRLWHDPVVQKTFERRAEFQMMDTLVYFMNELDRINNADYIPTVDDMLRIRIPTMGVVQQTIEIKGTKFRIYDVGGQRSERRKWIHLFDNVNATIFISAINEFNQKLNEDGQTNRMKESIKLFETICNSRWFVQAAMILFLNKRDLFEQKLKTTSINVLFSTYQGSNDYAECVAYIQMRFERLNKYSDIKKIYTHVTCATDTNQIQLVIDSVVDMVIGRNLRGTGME

T2: His-tagged GPA-14, in-vitro translated (pTNT-HIS) (C. elegans) (UniProt Q9BIG2)
T2 sequence (chain, translated in the presence of biotinylated lysyl-tRNA): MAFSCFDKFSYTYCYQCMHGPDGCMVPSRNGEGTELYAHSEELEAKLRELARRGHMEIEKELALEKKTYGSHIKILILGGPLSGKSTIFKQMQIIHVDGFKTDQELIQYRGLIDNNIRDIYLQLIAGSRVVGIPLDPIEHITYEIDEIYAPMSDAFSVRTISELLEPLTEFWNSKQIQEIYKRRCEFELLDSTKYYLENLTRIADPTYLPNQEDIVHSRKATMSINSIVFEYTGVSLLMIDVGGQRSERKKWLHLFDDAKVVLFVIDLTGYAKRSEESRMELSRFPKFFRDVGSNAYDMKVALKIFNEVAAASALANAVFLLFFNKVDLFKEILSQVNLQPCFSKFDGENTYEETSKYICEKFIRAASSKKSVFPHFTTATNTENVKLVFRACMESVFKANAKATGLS

T3: DOP-2IL-CIII (DOP-2XL amino acids 224-849), split-ubiquitin bait in pBT3-SUC (C. elegans) (UniProt E7EM37)
T3 sequence: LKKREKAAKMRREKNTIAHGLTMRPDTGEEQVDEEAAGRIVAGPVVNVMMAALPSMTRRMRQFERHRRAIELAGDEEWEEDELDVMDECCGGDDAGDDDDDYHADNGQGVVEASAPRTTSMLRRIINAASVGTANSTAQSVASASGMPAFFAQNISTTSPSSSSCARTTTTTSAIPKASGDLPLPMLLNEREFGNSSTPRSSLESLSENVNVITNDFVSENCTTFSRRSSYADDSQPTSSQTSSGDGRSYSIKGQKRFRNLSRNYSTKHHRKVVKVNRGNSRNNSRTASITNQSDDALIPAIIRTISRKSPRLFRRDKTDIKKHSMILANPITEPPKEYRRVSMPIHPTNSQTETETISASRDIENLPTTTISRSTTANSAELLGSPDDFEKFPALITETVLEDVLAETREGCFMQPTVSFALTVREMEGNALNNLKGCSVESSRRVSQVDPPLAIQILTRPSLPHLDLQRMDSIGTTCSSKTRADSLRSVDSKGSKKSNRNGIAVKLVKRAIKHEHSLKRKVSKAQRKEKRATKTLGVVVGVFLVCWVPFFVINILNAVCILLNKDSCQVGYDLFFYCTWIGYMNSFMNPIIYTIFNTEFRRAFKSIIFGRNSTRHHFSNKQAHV

T4: DOP-2IL-CII (DOP-2XL amino acids 124-849), split-ubiquitin bait in pBT3-SUC (C. elegans) (UniProt E7EM37)
T4 sequence: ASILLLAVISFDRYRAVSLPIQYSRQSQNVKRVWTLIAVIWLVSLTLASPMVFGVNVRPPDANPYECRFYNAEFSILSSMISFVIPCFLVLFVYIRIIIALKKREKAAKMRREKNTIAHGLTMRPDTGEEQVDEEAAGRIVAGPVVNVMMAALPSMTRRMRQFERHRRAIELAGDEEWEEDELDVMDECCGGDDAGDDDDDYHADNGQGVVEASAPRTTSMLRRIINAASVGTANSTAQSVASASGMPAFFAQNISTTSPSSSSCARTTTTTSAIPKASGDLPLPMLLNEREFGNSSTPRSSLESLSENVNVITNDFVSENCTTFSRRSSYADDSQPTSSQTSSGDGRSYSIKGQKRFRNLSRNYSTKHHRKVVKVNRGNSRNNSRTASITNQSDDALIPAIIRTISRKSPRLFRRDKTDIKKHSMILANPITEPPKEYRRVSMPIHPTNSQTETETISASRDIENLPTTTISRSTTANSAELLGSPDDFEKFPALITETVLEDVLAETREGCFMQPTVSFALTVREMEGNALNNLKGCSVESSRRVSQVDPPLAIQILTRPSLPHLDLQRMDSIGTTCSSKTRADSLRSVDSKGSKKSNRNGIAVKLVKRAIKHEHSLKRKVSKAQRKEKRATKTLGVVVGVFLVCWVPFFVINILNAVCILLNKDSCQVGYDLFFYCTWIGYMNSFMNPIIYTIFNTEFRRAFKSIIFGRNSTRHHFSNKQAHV

T5: C. elegans D2-like dopamine receptor DOP-2XL, full-length split-ubiquitin bait (dop-2c in pBT3-STE) (C. elegans) (UniProt E7EM37)
T5 sequence: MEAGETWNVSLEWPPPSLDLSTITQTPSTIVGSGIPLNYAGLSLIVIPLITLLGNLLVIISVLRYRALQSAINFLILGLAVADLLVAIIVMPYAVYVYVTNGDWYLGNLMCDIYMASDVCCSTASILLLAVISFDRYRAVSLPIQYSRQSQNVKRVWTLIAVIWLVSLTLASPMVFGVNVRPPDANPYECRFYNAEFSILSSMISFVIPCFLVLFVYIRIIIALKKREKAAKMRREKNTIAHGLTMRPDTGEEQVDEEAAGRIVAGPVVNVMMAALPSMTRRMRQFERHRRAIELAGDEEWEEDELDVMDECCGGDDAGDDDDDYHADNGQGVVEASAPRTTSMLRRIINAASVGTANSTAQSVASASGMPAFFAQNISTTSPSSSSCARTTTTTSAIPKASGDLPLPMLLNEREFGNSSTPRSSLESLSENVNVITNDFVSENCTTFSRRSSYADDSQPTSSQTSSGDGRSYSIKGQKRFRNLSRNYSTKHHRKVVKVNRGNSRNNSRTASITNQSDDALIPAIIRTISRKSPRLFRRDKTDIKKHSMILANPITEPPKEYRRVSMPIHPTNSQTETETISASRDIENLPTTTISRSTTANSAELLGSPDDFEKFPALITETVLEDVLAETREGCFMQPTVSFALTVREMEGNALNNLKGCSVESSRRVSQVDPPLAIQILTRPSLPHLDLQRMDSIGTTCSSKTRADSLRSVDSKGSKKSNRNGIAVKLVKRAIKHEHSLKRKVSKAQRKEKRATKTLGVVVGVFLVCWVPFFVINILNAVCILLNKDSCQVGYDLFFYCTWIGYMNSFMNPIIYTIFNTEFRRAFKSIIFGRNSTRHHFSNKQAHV

T6: DOP-2IL-CIV (DOP-2XL amino acids 821-849), split-ubiquitin bait in pBT3-SUC (C. elegans) (UniProt E7EM37)
T6 sequence: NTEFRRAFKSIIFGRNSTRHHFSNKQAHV

T7: DOP-2IL-CI (DOP-2XL amino acids 64-849), split-ubiquitin bait in pBT3-SUC (C. elegans) (UniProt E7EM37)
T7 sequence: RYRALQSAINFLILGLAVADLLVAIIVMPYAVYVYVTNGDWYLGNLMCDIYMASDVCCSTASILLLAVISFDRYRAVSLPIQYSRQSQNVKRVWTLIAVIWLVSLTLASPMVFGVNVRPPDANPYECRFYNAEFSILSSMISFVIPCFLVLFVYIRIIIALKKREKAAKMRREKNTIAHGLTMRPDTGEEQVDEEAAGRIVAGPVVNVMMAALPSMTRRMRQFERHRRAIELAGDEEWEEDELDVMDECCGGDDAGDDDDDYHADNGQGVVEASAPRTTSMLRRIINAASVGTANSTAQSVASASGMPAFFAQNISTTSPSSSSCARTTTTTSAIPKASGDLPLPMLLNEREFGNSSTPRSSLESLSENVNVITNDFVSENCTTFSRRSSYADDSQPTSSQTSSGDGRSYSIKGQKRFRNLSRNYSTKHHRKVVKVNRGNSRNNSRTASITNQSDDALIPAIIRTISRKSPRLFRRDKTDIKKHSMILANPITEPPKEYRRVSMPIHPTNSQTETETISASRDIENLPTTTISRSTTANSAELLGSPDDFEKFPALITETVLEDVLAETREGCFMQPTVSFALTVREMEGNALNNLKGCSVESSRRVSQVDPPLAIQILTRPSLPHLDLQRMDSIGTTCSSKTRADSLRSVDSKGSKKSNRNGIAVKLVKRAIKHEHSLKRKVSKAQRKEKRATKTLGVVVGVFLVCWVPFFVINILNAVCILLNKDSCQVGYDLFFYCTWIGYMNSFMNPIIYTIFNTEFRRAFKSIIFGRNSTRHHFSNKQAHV


Columns and labels:
[1] = target: T1, His-tagged GPA-15, in-vitro translated (pTNT-HIS) (C. elegans); experiment: pull-down; His pull-down: in-vitro translated His-tagged G-alpha and in-vitro translated DOP-2 truncations, 4°C, 20 mM sodium phosphate, 500 mM NaCl, 5% BSA; nickel resin (MagZ particles); SDS-PAGE, colorimetric detection
[2] = target: T2, His-tagged GPA-14, in-vitro translated (pTNT-HIS) (C. elegans); experiment: as above
[3] = target: T3, DOP-2IL-CIII (DOP-2XL amino acids 224-849), split-ubiquitin bait in pBT3-SUC (C. elegans); experiment: two-hybrid; split-ubiquitin pair-wise assay in yeast: DOP-2XL baits (full length in pBT3-STE, truncations in pBT3-SUC) with NubG preys (pPR3-N, pPR3-STE, pDL2-Alg5); growth on SD/-Ade-His-Leu-Trp with 1 mM 3-AT and X-gal filter assay
[4] = target: T4, DOP-2IL-CII (DOP-2XL amino acids 124-849), split-ubiquitin bait in pBT3-SUC (C. elegans); experiment: as above
[5] = target: T5, C. elegans D2-like dopamine receptor DOP-2XL, full-length split-ubiquitin bait (dop-2c in pBT3-STE) (C. elegans); experiment: as above
[6] = target: T6, DOP-2IL-CIV (DOP-2XL amino acids 821-849), split-ubiquitin bait in pBT3-SUC (C. elegans); experiment: as above
[7] = target: T7, DOP-2IL-CI (DOP-2XL amino acids 64-849), split-ubiquitin bait in pBT3-SUC (C. elegans); experiment: as above

Row | Binder | binding [1] | binding [2] | binding [3] | binding [4] | binding [5] | binding [6] | binding [7]
1 | DOP-2-CVI (DOP-2XL amino acids 183-849, il3+Ct region), in-vitro translated (domain or fragment, UniProt E7EM37 183-849, translated in the presence of biotinylated lysyl-tRNA) PDANPYECRFYNAEFSILSSMISFVIPCFLVLFVYIRIIIALKKREKAAKMRREKNTIAHGLTMRPDTGEEQVDEEAAGRIVAGPVVNVMMAALPSMTRRMRQFERHRRAIELAGDEEWEEDELDVMDECCGGDDAGDDDDDYHADNGQGVVEASAPRTTSMLRRIINAASVGTANSTAQSVASASGMPAFFAQNISTTSPSSSSCARTTTTTSAIPKASGDLPLPMLLNEREFGNSSTPRSSLESLSENVNVITNDFVSENCTTFSRRSSYADDSQPTSSQTSSGDGRSYSIKGQKRFRNLSRNYSTKHHRKVVKVNRGNSRNNSRTASITNQSDDALIPAIIRTISRKSPRLFRRDKTDIKKHSMILANPITEPPKEYRRVSMPIHPTNSQTETETISASRDIENLPTTTISRSTTANSAELLGSPDDFEKFPALITETVLEDVLAETREGCFMQPTVSFALTVREMEGNALNNLKGCSVESSRRVSQVDPPLAIQILTRPSLPHLDLQRMDSIGTTCSSKTRADSLRSVDSKGSKKSNRNGIAVKLVKRAIKHEHSLKRKVSKAQRKEKRATKTLGVVVGVFLVCWVPFFVINILNAVCILLNKDSCQVGYDLFFYCTWIGYMNSFMNPIIYTIFNTEFRRAFKSIIFGRNSTRHHFSNKQAHV | no binding | binds | – | – | – | – | –
2 | GPA-14, split-ubiquitin prey in pPR3-STE (NubG fusion) (protein, UniProt Q9BIG2 1-408) MAFSCFDKFSYTYCYQCMHGPDGCMVPSRNGEGTELYAHSEELEAKLRELARRGHMEIEKELALEKKTYGSHIKILILGGPLSGKSTIFKQMQIIHVDGFKTDQELIQYRGLIDNNIRDIYLQLIAGSRVVGIPLDPIEHITYEIDEIYAPMSDAFSVRTISELLEPLTEFWNSKQIQEIYKRRCEFELLDSTKYYLENLTRIADPTYLPNQEDIVHSRKATMSINSIVFEYTGVSLLMIDVGGQRSERKKWLHLFDDAKVVLFVIDLTGYAKRSEESRMELSRFPKFFRDVGSNAYDMKVALKIFNEVAAASALANAVFLLFFNKVDLFKEILSQVNLQPCFSKFDGENTYEETSKYICEKFIRAASSKKSVFPHFTTATNTENVKLVFRACMESVFKANAKATGLS | – | – | binds weakly | binds | binds | no binding | binds
3 | DOP-2-CV (DOP-2XL amino acids 1-182, il1+il2), in-vitro translated (domain or fragment, UniProt E7EM37 1-182, translated in the presence of biotinylated lysyl-tRNA) MEAGETWNVSLEWPPPSLDLSTITQTPSTIVGSGIPLNYAGLSLIVIPLITLLGNLLVIISVLRYRALQSAINFLILGLAVADLLVAIIVMPYAVYVYVTNGDWYLGNLMCDIYMASDVCCSTASILLLAVISFDRYRAVSLPIQYSRQSQNVKRVWTLIAVIWLVSLTLASPMVFGVNVRP | no binding | no binding | – | – | – | – | –
